The structures appear in SMILES notation. Among all 45,000 compounds or so, about 65 (0.1%) were called active. The call rests on the fitted dose curve; in most records, active means well fitted activation curve with a large enough effect; inconclusive means small, poorly fitted or top-dose-only effect; inactive means no such curve, though single readings can be large or run the other way. Some of the results follow.

The target in the assay is Galactocerebrosidase (Homo sapiens) (UniProt P54803). Description: A Novel Cell-Based Assay to Identify Small Molecules for B -Galactocerebrosidase. Further: 0% is about no effect; nearly all actives have a fitted effect of over 65% in size. To be noted: 145M-Twi-hGALC-G270D cells (Twitcher mouse brain line with human GALC G270D), HMU-beta-Gal fluorescence, 48 h; series mostly up to 57.5 µM; activation: at the top concentration. The method, boiled down: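 Mutant human GALC (G270D), stably expressed in a Twitcher mouse brain cell line lacking endogenous GALC, is measured in live-treated cells via 6-hexadecanoylamino-4-methylumbelliferyl-β-galactoside hydrolysis (0.1 mM final, pH 5.2) with fluorescent detection.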
UniProt P54803, sequence (P54803 whole entry, looked up): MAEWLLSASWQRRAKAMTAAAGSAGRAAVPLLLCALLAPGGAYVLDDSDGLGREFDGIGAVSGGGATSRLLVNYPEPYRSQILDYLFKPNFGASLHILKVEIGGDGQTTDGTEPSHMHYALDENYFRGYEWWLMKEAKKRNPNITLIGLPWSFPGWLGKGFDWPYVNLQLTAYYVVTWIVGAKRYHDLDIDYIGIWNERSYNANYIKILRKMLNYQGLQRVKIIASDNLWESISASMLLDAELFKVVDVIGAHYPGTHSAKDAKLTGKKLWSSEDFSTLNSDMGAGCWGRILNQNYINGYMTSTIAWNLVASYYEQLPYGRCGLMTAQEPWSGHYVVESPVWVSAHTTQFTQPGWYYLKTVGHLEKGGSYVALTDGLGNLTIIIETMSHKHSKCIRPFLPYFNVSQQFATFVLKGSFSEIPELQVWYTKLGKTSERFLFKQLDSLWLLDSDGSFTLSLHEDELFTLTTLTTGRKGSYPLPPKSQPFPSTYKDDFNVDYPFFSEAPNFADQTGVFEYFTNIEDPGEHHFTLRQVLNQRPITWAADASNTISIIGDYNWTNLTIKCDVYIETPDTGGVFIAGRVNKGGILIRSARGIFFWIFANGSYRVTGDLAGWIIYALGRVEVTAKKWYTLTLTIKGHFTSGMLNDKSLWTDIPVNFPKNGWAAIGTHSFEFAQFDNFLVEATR
For `CCN(CC)c1nn2c(=O)c(C(=O)NCc3ccc(N(C)C)cc3)cnc2s1`, the “activation” value was inactive: -12.1%.

For `COc1ccccc1CNC(=O)C1CCN(S(=O)(=O)c2cn(C)cn2)CC1`, the “activation” value was inactive: -9.99%.

For `Cc1ccc(C2c3[nH]c4ccccc4c3CCN2C(=O)CSCc2ccc(F)cc2)cc1` (stereo not drawn), the “activation” value was inactive: -4.81%.

In the case of `O=C(NCCc1csc(-c2ccc(F)cc2)n1)c1cccc(F)c1`, the “activation” value is inactive: -14.3%.

Take `CCc1ccccc1N(C)C(=O)c1sc2nc3n(c(=O)c2c1C)CCCCC3`: the “activation” value is inactive: -11.6%.

On to `COc1ccc(C(=O)CCC(=O)Nc2ccc(C)c(Cl)c2)cc1`, for which the “activation” value is inactive: -11.7%.

As to `CC1CCCN(CCCNC(=O)c2cc3c(Cl)nc4ccccc4c3s2)C1` (stereo not drawn), the “activation” value is inactive: -15.8%.

On to `COc1cc(Cl)c(C)cc1Nc1nc2ccccc2n2cnnc12`, for which the “activation” value is inactive: 5.64%.

For `CCOc1ccc(Br)cc1S(=O)(=O)Nc1cccc(-c2ccc(OC)nn2)c1`, the “activation” value is inactive: -13.3%.

For `Cc1ccc(C)c(N2CCN(C(=O)CN3C(=O)COc4ccc(S(=O)(=O)N5CCC(C)CC5)cc43)CC2)c1`, the “activation” value was inactive: -8.49%.

Take `COc1ccc(NC(=O)c2c(C)oc3ccc(O)c(CN4CCCCCC4)c23)cc1`: the “activation” value was inactive: -5.08%.

For `Cc1[nH]cnc1-c1ccc(Cl)cc1`, the “activation” value is inactive: -11.5%.

On to `CCn1nnc2cc(C(=O)Nc3ccc(OC)cc3)ccc21`, for which the “activation” value was inactive: -18.8%.

Take `COc1ccc(-n2c(=O)c3c4c(sc3n(Cc3ccc(C(C)(C)C)cc3)c2=O)CCC4)c(OC)c1`: the “activation” value was inactive: -11.3%.

Take `Cc1ccc(Cl)cc1N1CCN(C(=O)c2ccc3c(c2)N(Cc2ccccc2)CCS3)CC1`: the “activation” value is inactive: -11.6%.

In the case of `O=c1[nH]c(=O)n([C@H]2C[C@H](O)[C@@H](CO)O2)cc1Br`, the “activation” value is inactive: -15.8%.

As to `Cc1ccc(N2CCN(S(=O)(=O)c3ccc(-n4cnnn4)cc3)CC2)c(C)c1`, the “activation” value is inactive: -8.55%.

Turning to `O=C(NCCc1ccccc1)c1nn(-c2ccccc2Cl)nc1CO`, the “activation” value is inactive: -24.6%.

Take `Fc1ccc(Nc2c(-c3ccccn3)nc3ccc(Cl)cn23)cc1`: the “activation” value was inactive: -1.51%.

As for `O=C(Nc1cc(Cl)cc(Cl)c1)c1cc(S(=O)(=O)N2CCC3(CC2)OCCO3)ccc1F`, the “activation” value was inactive: -11.2%.

Take `COc1ccc(OC)c(NC(=O)CCNC(=O)Cn2cnc3ccccc3c2=O)c1`: the “activation” value was inactive: -19.3%.

For the compound `COc1cccc(NC(=O)Cc2csc(COc3cccc(C)c3)n2)c1`, the “activation” value was inactive: -5.82%.

As to `COc1cc(NC(C)CCCN)c2ncccc2c1` (stereo not drawn), the “activation” value was inactive: -7.78%.

On to `COc1ccc(CCNC(=O)c2cc(=O)[nH]c3ccc(S(=O)(=O)N4CCCCC4C)cc23)cc1OC` (stereo not drawn), for which the “activation” value was inactive: -6%.

Turning to `Cc1cn2c(=O)cc(COC(=O)c3ccc(NC(=O)C(C)Oc4ccccc4)cc3)nc2s1` (stereo not drawn), the “activation” value was inactive: -22.8%.

Take `CCOCCCNC(=O)c1c(NC(=O)c2nc(SC)ncc2Cl)sc2c1CCCC2`: the “activation” value is inactive: -15.7%.

On to `COCCn1c(C)cc(O)c(C(c2ccc(OC)cc2)N2CCN(c3ccccc3)CC2)c1=O` (stereo not drawn), for which the “activation” value was inactive: -20.5%.

Take `CCCCC1(COC(=O)CCC(=O)O)C(=O)N(c2ccccc2)N(c2ccccc2)C1=O`: the “activation” value is inactive: -10.6%.
